No constants are given. Whether binding was seen depends on the method and setting. Binding seen in cells or lysates may run through a third protein. Some results given as binding are weak or reduced against the parent protein; the word gives no strength. Sequences can lack the tags named with a protein.
B1: Vps23 (genomically epitope-tagged) (protein, UniProt P25604 1-385)
chain: MSANGKISVPEAVVNWLFKVIQPIYNDGRTTFHDSLALLDNFHSLRPRTRVFTHSDGTPQLLLSIYGTISTGEDGSSPHSIPVIMWVPSMYPVKPPFISINLENFDMNTISSSLPIQEYIDSNGWIALPILHCWDPAAMNLIMVVQELMSLLHEPPQDQAPSLPPKPNTQLQQEQNTPPLPPKPKSPHLKPPLPPPPPPQPASNALDLMDMDNTDISPTNHHEMLQNLQTVVNELYREDVDYVADKILTRQTVMQESIARFHEIIAIDKNHLRAVEQAIEQTMHSLNAQIDVLTANRAKVQQFSSTSHVDDEDVNSIAVAKTDGLNQLYNLVAQDYALTDTIECLSRMLHRGTIPLDTFVKQGRELARQQFLVRWHIQRITSPLS
B2: Bro1 (genomically epitope-tagged) (protein, UniProt P48582 1-844)
chain: MKPYLFDLKLKDTEKLDWKKGLSSYLKKSYGSSQWRTFYDEKATSELDHLRNNANGELAPSSLSEQNLKYYSFLEHLYFRLGSKGSRLKMDFTWYDAEYSSAQKGLKYTQHTLAFEKSCTLFNIAVIFTQIARENINEDYKNSIANLTKAFSCFEYLSENFLNSPSVDLQSENTRFLANICHAEAQELFVLKLLNDQISSKQYTLISKLSRATCNLFQKCHDFMKEIDDDVAIYGEPKWKTTVTCKLHFYKSLSAYYHGLHLEEENRVGEAIAFLDFSMQQLISSLPFKTWLVEFIDFDGFKETLEKKQKELIKDNDFIYHESVPAVVQVDSIKALDAIKSPTWEKILEPYMQDVANKCDSLYRGIIPLDVYEKESIYSEEKATLLRKQVEETETANLEYSSFIEFTNLPRLLSDLEKQFSDGNIFSNTDTQGQLMRDQIQTWCKFIQTNEFRDIEEQMNKIVFKRKQILEILSALPNDQKENVTKLKSSLVAASNSDEKLFACVKPHIVEINLLNDNGKIWKKFDEFNRNTPPQPSLLDIDDTKNDKILELLKQVKGHAEDLRTLKEERSRNLSELRDEINNDDITKLLIINKGKSDVELKDLFEVELEKFEPLSTRIEATIYKQSSMIDDIKAKLDEIFHLSNFKDKSSGEEKFLEDRKNFFDKLQEAVKSFSIFASDLPKGIEFYDSLFNMSRDLAERVRVAKQTEDSTANSPAPPLPPLDSKASVVGGPPLLPQKSAAFQSLSRQGLNLGDQFQNLKISAGSDLPQGPGIPPRTYEASPYAATPTMAAPPVPPKQSQEDMYDLRRRKAVENEERELQENPTSFYNRPSVFDENMYSKYSS

Experiments:
GST-p6 (HIV-1) [1] = molecular target: GST-p6 (HIV-1) (UniProt P04591); assay: pull-down; GST-tagged Gag fragment on GSH-Sepharose incubated overnight with yeast extract, binding buffer with 400 mM NaCl, 1 mg/ml BSA; only the target purified
GST-MA (HIV-1) = GST-MA (HIV-1) (UniProt P04591); assay: pull-down; GST-tagged Gag fragment on GSH-Sepharose incubated overnight with yeast extract, binding buffer with 150 mM NaCl, 1 mg/ml BSA; also with extract of Δbro1 or Δvps23 cells (Fig. S12 D, E); only the target purified
[2] = molecular target: CA-SP1-NC-SP2-GFP (expressed in yeast) (HIV-1) (UniProt P04591); assay: co-IP; GFP-tagged Gag version immunoprecipitated from yeast extract with polyclonal anti-GFP and Protein A-Sepharose, 50 mM Tris pH 7.5, 400 mM NaCl, 1% Triton X-100, 10% glycerol, 4 °C overnight; Bro1 or Vps23 detected by anti-HA or anti-Myc blot; also done with Δbro1 or Δvps23 cells (Fig. S12 A-C)
[3] = molecular target: Gag(Δp6)-GFP (expressed in yeast) (HIV-1) (UniProt P04591); assay: as above
[4] = molecular target: MA-GFP (expressed in yeast) (HIV-1) (UniProt P04591); assay: as above
GST-p6 (HIV-1) [5] = molecular target: GST-p6 (HIV-1) (UniProt P04591); assay: pull-down; GST-tagged Gag fragment on GSH-Sepharose incubated overnight with yeast extract, binding buffer with 150 mM NaCl, 1 mg/ml BSA; also with extract of Δbro1 or Δvps23 cells (Fig. S12 D, E); only the target purified
[6] = molecular target: SP1-NC-SP2-GFP (expressed in yeast) (HIV-1) (UniProt P04591); assay: co-IP; GFP-tagged Gag version immunoprecipitated from yeast extract with polyclonal anti-GFP and Protein A-Sepharose, 50 mM Tris pH 7.5, 400 mM NaCl, 1% Triton X-100, 10% glycerol, 4 °C overnight; Bro1 or Vps23 detected by anti-HA or anti-Myc blot; also done with Δbro1 or Δvps23 cells (Fig. S12 A-C)

| Binder | binding (GST-p6 (HIV-1) [1]) | binding (GST-MA (HIV-1)) | binding [2] | binding [3] | binding [4] | binding (GST-p6 (HIV-1) [5]) | binding [6] |
| --- | --- | --- | --- | --- | --- | --- | --- |
| B1 | no binding | binds | binds | binds | binds | – | – |
| B2 | binds weakly | binds | binds | binds | binds | no binding (condition: with 150 mM NaCl) | no binding |
